The source gives no read counts; variants with many changes may rest on few reads.
B1: CPEB3 Ribozyme (parent)
chain: UAACAGGGGGCCACAGCAGAAGCGUUCACGUCGCAGCCCCUGUCAGAUUCUGGUGAAUCUGCGAAUUCUGCUGUAUAUCUC

Variants of: B1
Test: self-cleavage, relative activity (ratio to wild type); higher = more cleavage; in vitro, sequencing
In short: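 CPEB3 self-cleaving ribozyme mutant libraries were made by rounds of error-prone PCR, barcoded, and transcribed in vitro with T7 RNA polymerase for 5 hours at 37°C. Cleavage occurred during transcription and a 15 min DNase I step before EDTA stop. RNAs were reverse transcribed with template switching and Illumina-sequenced, with DNA sequencing mapping barcodes to variants. Relative activity is the variant's cleaved/total read fraction divided by wild type's (minimum 5 reads), averaged across three batches.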

Variant	self-cleavage
A18U A20U A35C U76A	0.19
A18U C62A U66C U78C	0.15
A18U A28G U41G	0.25
A18U A21G G36C A47C U54C	0.05
A18U G30U U78C	0.17
A18U G33A A47C U80C	0.2
A18G U54C U76C	0.51
A18U A64G G70A U80C	0.17
A18U A35G U43A G61A U78A	0.53
A18U G30A U41C	0.08
A18U A21G A65G U66C U80C	0.08
A18U A21U U49C U69C	0.12
A18U A20U C23G U26A	0.23
A18G U67C U69C	0.25
A18U A45G A56G	0.25
A18G U69C U80A	1.22
A18U A21C U41A A45U C50A A64G U67A	0.12
A18U A35G U54C	0.72
A18U C29A A35G A45G A47G A75G	0.14
A18U G22C C59A	0.08
A18U A20U A47C	0.2
A18U A28U U51C A57G U60C A77G	0.15
A18U A35G U66C	0.38
A18U A35G C37U U60C U80C	0.32

Variant	self-cleavage
A18U C23U C34U A35U A65G	0.21
A18U C23U U41C A45G U74C	0.06
A18U A28G U76C	0.54
A18U G19U U26C	0.16
A18U A47G A56G U72A	0.09
A18U A35U A65G	0.28
A18U A45G A47G U67C	0.15
A18U A28G G33A U43A U60A	0.14
A18U A35U U43C	0.15
A18U G33A A35G A64U A75G U78A	0.05
A18G U76A U80C	1.04
A18U A20G A35U A75G	0.11
A18U A21G G33A A35G U41C	0.35
A18U A20U U41C	0.12
A18U A21G C32U A57G A75U	0.35
A18U A28U A64U	0.15
A18U A28G A75C A77G U78A	0.52
A18U A28G A35U U41A A75U	0.16
A18U C38G A45U C81U	0.21
A18U A56U G63C U76A	0.15
A18G U80A C81U	1
A18U A28C U49A G53C C62A U67C G70A	0.04
A18U A45G U60C C71G	0.11
A18U A45G U48C U58C	0.14

Variant	self-cleavage
A18U C32U A45G U48C	0.06
A18U A21U A28C	0.07
A18U A21G U66C U74C	0.37
A18U C40A U43C	0.08
A18U A64G U76C	0.31
A18U G24U U67A	0.16
A18U A20G A45U A47C U49C U72C	0.28
A18U C39A U67A	0.21
A18U A21U U25C C40G U76A	0.17
A18U A64G U66C U74C U78A	0.22
A18U A21G U43C A57G G73A	0.25
A18U C32G C40A U60A U72A	0.07
A18U C62A U78C	0.19
A18U G24A U43C	0.19
A18U A21G A45U G63U U72A	0.05
A18U A45U U69C	0.19
A18U G30A U31A U54C U69A	0.11
A18U A21G U41A U51C G70U U78C	0.1
A18G U67A U78C	0.11
A18U A20U A35G U69C	0.36
A18U A45U A47G U69A	0.54
A18G U51C U72A	0.37
A18U A28C U72A	0.15
A18U A20G C23U U58C	0.06

Variant	self-cleavage
A18U A35U U41C A65G	0.42
A18U G24U C37U U41C	0.16
A18U C38G A47G C81U	0.21
A18U A20U U43A	0.4
A18U A57C G63A A65U	0.12
A18U G30U U69A	0.12
A18U G33A A65G U80C	0.17
A18U A47C A56G	0.16
A18U A28C U51A A64G U72A C79U	0.06
A18U A20G U25C U74C	0.59
A18G U72C A75G A77U	0.5
A18U G30U A35U U43A A45G U60A U78C	0.04
A18U A35G A56U C68A	0.39
A18U A45G A47G	0.19
A18U A21G U58C U67A A75G	0.05
A18U G24C C37U U41C U78C	0.07
A18U A35G U49C U60A	0.15
A18U A20G U51C G52A U72A C79U	0.78
A18U C27A U31C U78C	0.35
A18U A56U U72C	0.25
A18U A35G U67C	0.15
A18U A28C G55U U69A U80A	0.58
A18G U51C U78C	0.62
A18U A21G U43C U54G	0.13

Variant	self-cleavage
A18U G33A C40U U58C	0.19
A18U A28G A45G U51C G52U C62U A65U	0.08
A18G U72C U76A	0.67
A18U A20U U72C	0.21
A18U A20G A21G U51C G52A	0.35
A18U A45G U49A	0.46
A18U A28C C39U C50A A75U	0.07
A18U A28C A56G U69C	0.08
A18G U60G A64G G70C	0.12
A18G U72A C79U	0.39
A18U A21G C79A	0.08
A18U A35U A77U	0.1
A18U A28U U31G	0.13
A18U A28C C29U A35G U43C A45G C62U	0.05
A18U A35U G52A U66A U69C U72C	0.1
A18U C37U U41C U58C	0.1
A18U A21G U25A C34G A56C U72A U80C	0.02
A18U C39A U41C	0.12
A18G U54G U69G	0.28
A18U A20G U43G C59U U66C U80A	0.04
A18G U54C A64G U72G U78C	0.27
A18G U66C U72G	0.15
A18G U78C U80C	0.8
A18U C37G U49A U54C U58C A77C	0.06

Variant	self-cleavage
A18U C23U C32U U49A C50G A64C U80C	0.04
A18U A57G U60C	0.19
A18U A28C U58C U67A U74C	0.11
A18U A21G A35U U54C U58A U69C	0.11
A18G U72A U74A	0.65
A18U G22C C39U U43C U51A A57G U78C	0.05
A18U A21G A28C A45G U60C A64G U74C	0
A18G U67C U74C	0.18
A18U A21G U43A A64C	0.14
A18U A57G U72C	0.19
A18U A20G C23A U25G A57U A77U	0.07
A18G U60A U69A U78C C81U	0.2
A18U A20U U31C A47G U69C	0.06
A18U A45G A47U U49A	0.28
A18G U54A U60A A64G U80C	0.23
A18U A45G A64G	0.44
A18U A75G U76C	0.4
A18U A35G U51A U58C U80C	0.48
A18U A35C U72C	0.14
A18U A47U U58A U72G	0.09
A18U A45G U67A	0.18
A18U A45G A56G U60A	0.56
A18U A56U U69A	1.09
A18U G19U U69C A75U	0.11

Variant	self-cleavage
A18U A65G U72C	0.38
A18U A20U U54A	0.09
A18U A28U U43C U69C	0.14
A18U C27G A35G	0.16
A18U C23G A77U	0.28
A18U A20G G24A G53C U66A	0.12
A18U A57G U80C	0.4
A18U A20G C29U A65U U67C	0.21
A18U G19C U43C C62U U66A G73A	0.08
A18U A20G U69C U72A U76C A77G	0.09
A18U A21G G24C U67A U72A	0.11
A18U A20U U26A U41A U54G C59G	0.07
A18U G24A U25C U43A	0.25
A18U A47G U48A A64U U78A	0.15
A18U C27A C34G U72C	0.11
A18U C40A C62U U69C U80A	0.17
A18U A64G U69A	0.99
A18U G19A A21G U41A	0.1
A18U C40A C81G	0.07
A18G U54C G55A	0.48
A18G U58C U76A	0.23
A18U C39U U41C U49C	0.14
A18U A28G U31C	0.22

Reference: the RNAGym collection of RNA variant scans (doi:10.1093/nar/gkz1192)
